Test results reported in PubChem BioAssay AID1240 (Sanford-Burnham Center for Chemical Genomics, 2008).
Hit rate of the full screen: of about 50,000 compounds, about 800 (1.6%) showed an effect of 50% or more. The list shows a part of the results.

These molecules were tested against Bcl-2-like protein 10 (Homo sapiens) (UniProt Q9HD36) (assay: TR3 peptide-Bcl-B binding displacers, biochemical primary FP assay, phenotype converters (AID 1240;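 also: 0% = Bcl-B with tracer peptide and DMSO and 100% = tracer peptide lacking Bcl-B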)). Settings: GST-Bcl-B / FITC-TR3 peptide fluorescence polarization; stronger effect = higher value; compound at 3.75 mg/L.
Chain of UniProt Q9HD36 (Q9HD36 whole entry, looked up): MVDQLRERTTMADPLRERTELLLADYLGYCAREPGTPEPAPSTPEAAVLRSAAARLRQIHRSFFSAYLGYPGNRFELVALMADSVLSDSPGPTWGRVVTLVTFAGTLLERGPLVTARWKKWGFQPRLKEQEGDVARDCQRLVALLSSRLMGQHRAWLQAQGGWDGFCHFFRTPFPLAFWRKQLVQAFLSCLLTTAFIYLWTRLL

SMILES | displacement [%]
Cc1cc(-c2ccc(C=C3C(=O)N(C)C(=O)N(C)C3=O)o2)c([N+](=O)[O-])cc1C | 12.9
Cn1c(-c2ccc(Cl)cc2Cl)n[nH]c1=S | -26.2
CCOC(=O)c1ccc(NC(=O)/C(=C/c2ccccc2)c2ccccc2)cc1 | -30.1
CC(=O)N/N=C/c1ccc2c(c1)OCO2 | 20.9
COCCNC(=S)Nc1ccc(F)cc1 | 6.5
Cc1nn(CC(=O)Nc2ccccc2C(F)(F)F)c(C)c1[N+](=O)[O-] | -5.4
CC12C=CC(C)(O1)C1C(=O)N(c3ccc(F)cc3)C(=O)C12 (stereo not given) | -0.5
COC(=O)c1ccc(-n2c(C)cc(/C=C3\SC(=S)NC3=O)c2C)cc1 | 28.3
O=C(O)c1ccccc1C(=O)c1ccc(F)c(F)c1 | -2.8
COc1cc(-c2nnc3ccc4ccccc4n23)ccc1OCc1ccccc1 | -3.3
Cc1ccc(OCCSc2ncnc3nc[nH]c23)cc1 | 4.7
Cc1ccc(N(CC(=O)Nc2cccc(Br)c2)S(C)(=O)=O)cc1Cl | -4.3
CCCCOC(=O)Cn1c(=N)n(CCC)c2ccccc21 | -2
COc1cc(NC(=O)Cn2nc([N+](=O)[O-])c(Cl)c2C)cc([N+](=O)[O-])c1 | -4.1
CCC(=O)Oc1ccc2ccc(=O)oc2c1 | 4.6
CC(C)(C)c1ccc(OCC(=O)Nc2ccc3oc(-c4cccnc4)nc3c2)cc1 | -8.5
CCCS(=O)(=O)c1c(S(=O)(=O)CCC)c2c(N)cccn2c1C(=O)c1ccc(OC)cc1 | 17.1
O=c1[nH]c(=S)n(-c2ccc(Cl)c(Cl)c2)c(O)c1/C=C1\C=CC=N1 | 6.4
COc1cc(C2Nc3cc(C)c(C)cc3NC3=C2C(=O)CC(C)(C)C3)cc(Br)c1OC (stereo not given) | -0.9
Cc1ccc(C(=O)N2CCN(C(=O)c3ccc(C)cc3)CC2)cc1 | -11.6
COC(=O)c1cnn2c(C(F)(F)F)cc(-c3ccccc3)nc12 | 2.1
CCOC(=O)c1ccccc1NC(=O)CN(c1ccc(OC)cc1)S(C)(=O)=O | -3.1
CN(C)c1cccc(NC(=O)CCc2ccccc2)c1 | 11.9
COC(=O)C1=C(C)N(C)C(C)=C(C(=O)OC)C1c1ccc(Br)cc1 | -10.8

SMILES | displacement [%]
CCN(CC)CCN1C(=O)C(O)=C(C(=O)/C=C/c2ccccc2)C1c1ccc(C)cc1 (stereo not given) | -8.5
COC(=O)c1ccc(-c2ccc(/C=N\Nc3ccc([N+](=O)[O-])cn3)o2)cc1 | 9
C=CCOc1ccc(/C=C2\C(=O)NC(=S)N(c3ccc(Br)cc3)C2=O)cc1OC | -7.7
Cc1cc(C)cc(NC(=O)COc2cccc(C)c2)c1 | 10.4
CCN(CC)CCn1c2ccccc2n2cc(C(C)(C)C)nc12 | -8.7
COc1ccc(-c2csc(/C(C#N)=C\c3cc(OC)ccc3OC)n2)cc1 | -5.9
COc1ccc(OC(C)C(=O)Nc2ccccc2C(N)=O)cc1 (stereo not given) | 7.8
COc1ccccc1OCCCn1ccnc1 | -7.3
O=C(COc1ccc(Cl)cc1Cl)NNC(=O)C1COc2ccccc2O1 (stereo not given) | -4.7
CCC(=O)Oc1ccc2c(C)c(Cl)c(=O)oc2c1 | 6.6
O=C(Cc1ccc(Cl)cc1)Nc1ccc(Cl)cn1 | 8.8
C/C(=N\NC(=O)C1(C)CC1(Br)Br)c1ccc(Cl)s1 (stereo not given) | -3.8
COCCNC(=O)CN(c1ccc(F)cc1)S(=O)(=O)c1ccccc1 | -0.6
Cc1ccc(S(=O)(=O)Nc2c(C)n(C)n(-c3ccccc3)c2=O)cc1[N+](=O)[O-] | -9.4
COc1cc(/C=C2\C(=O)NC(=S)N(c3ccc(Cl)cc3)C2=O)ccc1OCc1ccc(C(=O)O)cc1 | 10.1
O=[N+]([O-])c1cccc2c1NC(c1ccc(Cl)cc1)C1CC=CC21 (stereo not given) | 7.5
COc1ccc(NS(=O)(=O)c2ccc(C(C)C)cc2)cc1 | 1.8
CCOc1ccc2nc(SCC(=O)NC(C)c3ccccc3)sc2c1 (stereo not given) | 1.7
Cc1cc(/C=C2\C(=O)NC(=O)N(c3ccccc3F)C2=O)c(C)n1-c1cccc([N+](=O)[O-])c1 | 8.6
O=C1c2cccc3cccc(c23)C(=O)N1CCC(=O)n1cnc2ccccc21 | -7.7
CNC(=O)/C(C#N)=C/c1ccc([N+](=O)[O-])o1 | 39.4
CCOC(=O)C1C(=O)C=C(/C=C/c2ccco2)CC1c1ccccc1 (stereo not given) | 0.3
CC1C(=O)CC(c2ccc(Cl)cc2)NC1c1ccc(Cl)cc1 (stereo not given) | 1.8
c1ccc2[nH]c(CSc3nc4ccccc4s3)nc2c1 | -18.8

SMILES | displacement [%]
O=C(O)c1cc(NC(=O)c2ccc(I)cc2)cc(C(=O)O)c1 | -5.9
CCc1c(C)nc2cc(-c3cccc(F)c3)[nH]n2c1=O | 8.2
Cc1ccc(N2C(=O)NC(=O)/C(=C/c3cccc(Cl)c3)C2=O)cc1 | -8.8
CCc1ccc(-c2nc(-c3ccccc3C)no2)cc1 | -3.7
CCOC(=O)N1N=C(C)CC1(O)c1ccc(Br)cc1 (stereo not given) | -8.5
CCOC(=O)c1ccc(-c2ccc(C(=O)Nc3ccc(-c4nc5ccccc5o4)cc3)o2)cc1 | 20.2
Fc1ccc(OCCCn2ccnc2)cc1 | 16.9
CCCCS(=O)CC(O)COC(C)C (stereo not given) | -1.5
COc1ccc(C2CC(C(F)(F)F)n3nc(C(=O)NCc4cccs4)cc3N2)cc1OC (stereo not given) | 7.1
CC1(C)CC(=O)C2=C(C1)Nc1ccccc1NC2c1cccc(O)c1O (stereo not given) | -0.4
O=C(Nc1nc(-c2ccccc2)cs1)C(c1ccccc1)c1ccccc1 | 1.4
O=C(Nc1ccc(-c2nc3ccccc3c(=O)o2)cc1)c1ccccc1F | 9.7
O=C(O)c1ccc(S(=O)(=O)n2cnc3ccccc32)cc1 | 1.8
Clc1cccc(-n2ncnc2-c2cccc(Br)c2)c1 | -4
CCCOc1ccc(/C=N/N(C)c2cc(C)nc(-c3ccccc3O)n2)c(O)c1 | -2.1
CCOC(=O)CC(=O)c1cc(C(C)=O)c(Nc2ccccc2)s1 | -2.8
O=C(Cc1ccc(Br)cc1)Nc1ccc(Cl)c(Cl)c1 | 19.9
COC(=O)C1=C(C(=O)OC)C2C=CC1C1C=CC21 (stereo not given) | 1.4
CC1=C(C#N)C(c2ccccc2F)C2=C(CCCC2=O)N1 (stereo not given) | -3.4
CCc1ccc(NC(=O)C2CC(=O)N(c3ccccc3)C2)cc1 (stereo not given) | -6.2
CCOC(=O)C1CCN(C(=O)/C=C/c2cccc([N+](=O)[O-])c2)CC1 | 4.4
O=C(/C=C/c1ccc(-c2ccccc2[N+](=O)[O-])o1)Nc1ccc(NC(=O)c2ccco2)cc1 | -0.2
